Among the data in patent US9493440B2, “Compounds inhibiting leucine-rich repeat kinase enzyme activity” (Merck Sharp & Dohme Corp., priority 2013, dated 2016) are IC50 values, retold here.

This experiment has as its target LRRK2(G2019S mutation, GST-LRRK2(amino acids 970-2527)) (Homo sapiens (Human), UniProt Q5S007, G2019S). The experiment is described as follows: LRRK2 Km ATP LanthaScreen Assay. Particulars: read-out: LRRK2 IC50; Km ATP LanthaScreen Assay, mean IC50. (In general: In TR-FRET formats the signal depends on donor and acceptor labels being close together.)

Usually IC50 stands for the concentration at which inhibition is half-maximal. In the case of `CC1(Oc2ccc3[nH]nc(-c4cc(N5CCN(C6CC6)CC5)ncn4)c3c2)CC1` [Example 2], the IC50 was determined as 2.77 nM.
The figure for `CN1CCN(c2cc(-c3n[nH]c4ccc(OC5(C)CC5)cc34)ncn2)CC1=O` [Example 4] is 2.47 nM; for `CC1(Oc2ccc3[nH]nc(-c4cc(N5CC(S(C)(=O)=O)C5)ncn4)c3c2)CC1` [Example 5] it is 2.15 nM; for `CC1(Oc2ccc3[nH]nc(-c4cc(N5CCOC6(CC6)C5)ncn4)c3c2)CC1` [Example 6] it is 1.51 nM.
The figure for `CC1(Oc2ccc3[nH]nc(-c4cc(N5C[C@H](F)[C@@H](F)C5)ncn4)c3c2)CC1` [Example 7] is 3.92 nM; for `CC1(Oc2ccc3[nH]nc(-c4cc(N5CCN(CCO)CC5)ncn4)c3c2)CC1` [Example 8] it is 1.17 nM.
The figure for `CO[C@H]1CCN(c2cc(-c3n[nH]c4ccc(OC5(C)CC5)cc34)ncn2)C1` [Example 12] is 1.42 nM; for `CC1COCCN1c1cc(-c2n[nH]c3ccc(OC4(C)CC4)cc23)ncn1` (centres unmarked) [Example 13] it is 2.29 nM.
On to `COCCN(C)c1cc(-c2n[nH]c3ccc(OC4(C)CC4)cc23)ncn1` [Example 14], for which the IC50 is 4.44 nM.
The figure for `CC1(Oc2ccc3[nH]nc(-c4cc(N5CCC6(CCNC6=O)CC5)ncn4)c3c2)CC1` [Example 15] is 0.86 nM; for `C[C@@H]1CN(c2cc(-c3n[nH]c4ccc(OC5(C)CC5)cc34)ncn2)CCN1C` [Example 16] it is below 0.6 nM.
For the compound `CC(C)N1CCN(c2cc(-c3n[nH]c4ccc(OC5(C)CC5)cc34)ncn2)CC1=O` [Example 18], the IC50 was determined as 1.5 nM.
`CCN1CCN(c2cc(-c3n[nH]c4ccc(OC5(C)CC5)cc34)ncn2)CC1=O` [Example 19]: the IC50 was 1.08 nM.
The figure for `COCCN1CCN(c2cc(-c3n[nH]c4ccc(OC5(C)CC5)cc34)ncn2)CC1=O` [Example 20] is 1.01 nM; for `CC1(Oc2ccc3[nH]nc(-c4cc(N5CC[C@@H](N)C5)ncn4)c3c2)CC1` [Example 21] it is 1.99 nM.
The figure for `CC1(Oc2ccc3[nH]nc(-c4cc(N5CC[C@H](N)C5)ncn4)c3c2)CC1` [Example 22] is 2.19 nM.
The figure for `CC1(Oc2ccc3[nH]nc(-c4cc(N5CCO[C@@H](CO)C5)ncn4)c3c2)CC1` [Example 23] is 0.75 nM.
`CC1(Oc2ccc3[nH]nc(-c4cc(N5CCO[C@H](CO)C5)ncn4)c3c2)CC1` [Example 24]: the IC50 came to 0.78 nM.
The figure for `C[C@H]1CN(c2cc(-c3n[nH]c4ccc(OC5(C)CC5)cc34)ncn2)CCN1C` [Example 26] is below 0.6 nM; for `CC1(Oc2ccc3[nH]nc(-c4cc(N5CC6CCC(C5)O6)ncn4)c3c2)CC1` [Example 29] it is 1.59 nM; for `CN1CCC2(CCN(c3cc(-c4n[nH]c5ccc(OC6(C)CC6)cc45)ncn3)C2)C1=O` (centres unmarked) [Example 30] it is 0.95 nM.
The figure for `CC1(Oc2ccc3[nH]nc(-c4cc(N5CCC6(CCNC6=O)C5)ncn4)c3c2)CC1` (centres unmarked) [Example 31] is 1.29 nM; for `CC1(Oc2ccc3[nH]nc(-c4cc(N5CCC6(CCC(=O)N6)CC5)ncn4)c3c2)CC1` [Example 32] it is 0.86 nM.
The figure for `CCS(=O)(=O)N1CCN(c2cc(-c3n[nH]c4ccc(OC5(C)CC5)cc34)ncn2)CC1` [Example 33] is 0.63 nM.
As for `CC1(Oc2ccc3[nH]nc(-c4cc(N5CCN(S(=O)(=O)C6CC6)CC5)ncn4)c3c2)CC1` [Example 34], the IC50 came out at 0.99 nM.
The figure for `CC1CN(C)CCN1c1cc(-c2n[nH]c3ccc(OC4(C)CC4)cc23)ncn1` (centres unmarked) [Example 35] is 1.03 nM; for `CN1CC2(CCN(c3cc(-c4n[nH]c5ccc(OC6(C)CC6)cc45)ncn3)CC2)CC1=O` [Example 37] it is 0.7 nM; for `CN1CCC2(CCN(c3cc(-c4n[nH]c5ccc(OC6(C)CC6)cc45)ncn3)CC2)C1=O` [Example 39] it is 0.71 nM.
Take `CCC(=O)N1CCN(c2cc(-c3n[nH]c4ccc(OC5(C)CC5)cc34)ncn2)CC1` [Example 41]: the IC50 worked out at 0.87 nM.
